According to the supplement of paper PMC11417369:
± gives the standard deviation of the averaged measurements. The list shows a part of the results.

Test system: PfAP2-EXP AP2 domain (GST-tagged)
Assay: gcPBM binding intensity (ln(normalized median fluorescence intensity)); higher = stronger DNA binding
Procedure, shortened: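 The binding buffer was 1× PBS containing 1% milk, 0.2 mg/ml BSA, 0.5% salmon testes DNA and 0.03% Triton X-100. In it, GST-tagged P. falciparum DNA-binding domains expressed in E. coli were applied for 1 h to an Agilent 4 × 180k array of primer-extended double-stranded 36-bp intergenic genomic probes plus negative controls. Binding intensity, read with Alexa488 anti-GST antibody and a 488 nm scan, is the highest Masliner-normalised natural-log median intensity across replicate spots of either probe orientation.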

Sequence | gcPBM binding intensity (ln)
TAATTTTTTTAAAACACACAAATATGTAAATATGTA [CACACA_site7769] | 8.27 ± 0.41
ATAAAATCTTAATCAACAAACAAACAAAAAAAAAAT [CACACA_negctrl_site1161] | 8.63 ± 0.73
GATTTTCATATTTTTTGTACTTACATTTTTCTATAC [XGTACX_site6002] | 9.01 ± 0.45
TATGTGATATATTTATCACACATTATATATATATAT [CACACA_site5103] | 9.99 ± 0.22
TATGATGATGAATAACGTACAAAAAAATTAATCACC [XGTACX_site6794] | 8.94 ± 0.42
TACATTTTTATTTTTACACACATATTTATTTATATA [CACACA_site6609] | 8.74 ± 0.55
TAATATGAAAAGTGTACACACGCACAGACAAAAAAA [CACACA_site5594] | 9.21 ± 0.54
GCATAAATCAGACACACACACATATATAAATATGTA [CACACA_site7187] | 8.4 ± 0.34
AATATTTAATTCAACACACATACATATTTATTAAAA [CACACA_site2342] | 8.32 ± 0.52
ATTCATTTTAATATGGGTACATAAAAATAAAAAGAA [XGTACX_site2801] | 8.75 ± 0.13
TGTTTATTTTTTTTATGTACTTATTTTTTATTGCAT [XGTACX_site719] | 9.04 ± 0.32
ATAAATATATGGTTTCATTATATTAAATTCAATTTA [CACACA_negctrl_site213] | 8.04 ± 0.32
AACTTATTAAGCCCTCCACATTTCTCTACTACAACT [CACACA_negctrl_site1552] | 8.61 ± 0.43
TCTATTTTTCTAATTTGTACATAGCTTTGAGTTAGT [XGTACX_site8977] | 8.71 ± 0.5
AACTTCTTTTTTATAACACACAAAATATATATACAA [CACACA_site282] | 8.69 ± 0.42
AGATAAAATATATACACACACATAAATACGTACAAA [CACACA_site1086] | 9.12 ± 0.45
AAAAGAATGAAACATAATAAATTACATTAAAATAAT [CACACA_negctrl_site897] | 8.42 ± 0.33
AATAAATAAATAAGTACACACATATATATATATATA [CACACA_site284] | 10.2 ± 0.6
GGCATACACAGACACACACACACACCCACATATATA [CACACA_site591] | 8.79 ± 0.4
TAATTATCACATTGCACACACATTTCCTTTTACATT [CACACA_site3443] | 9.05 ± 0.38
ATTTTTTTATTTTGTGCACACACATAAAAATATATA [CACACA_site762] | 8.89 ± 0.12
AAATTATTATGAAATGGAAAATGCATAAATTGTTTT [XGTACX_negctrl_site206] | 8.63 ± 0.48

Sequence | gcPBM binding intensity (ln)
ATTAAATAATAATAATGTACGTATTATATTAATACA [XGTACX_site5439] | 8.43 ± 0.17
TAAAATTTAAAATATACACACAAAAAGTTATTACAA [CACACA_site4080] | 8.4 ± 0.47
ATTCTTTACTCATAAAATTATATTATATAAACTTTT [XGTACX_negctrl_site554] | 8.61 ± 0.49
CTCTTTAAAAATATGGGTACAAAAAAAAAAAAAATA [XGTACX_site6185] | 8.5 ± 0.58
AGGCCCTATGTTGTTACACACATAGAATGATACATC [CACACA_site1266] | 8.53 ± 0.35
AAAACAGTGACAACTCGTACTTATATTTTTTTTTGT [XGTACX_site4968] | 8.42 ± 0.41
AAAGTACAATCATAATCACACGTGTCTATTATATAC [CACACA_site8103] | 8.65 ± 0.42
CAAAGATAAAATGATGCACACAAAAGGGTGTAATAT [CACACA_site8499] | 8.9 ± 0.35
TATATTTATTTATATGTATGCATGTCTGTATATGCT [TGCATGCA_site339] | 8.57 ± 0.45
ACATGGTTTACACGTGCATGTGGATGACTGGACATT [TGCATGCA_site640] | 8.93 ± 0.29
TTTTCTTTTAATATTTTTAATAATTATATTTTGAAA [XGTACX_negctrl_site495] | 8.34 ± 0.47
TGAGAAAATTAAAAGGTGCTCAGAAATTTTATATTA [GTGCAC_site9954] | 8.45 ± 0.33
AATACGACAAACAAATGTACAAATAAATATTCGCGT [XGTACX_site6427] | 9.02 ± 0.58
AAAAATGTAAAGTGCGTGCACAAAATATTTGGAAAA | 9.06 ± 0.28
AAATTACTAATGTGCACACATACTAACGTTTAAATA [CACACA_site3572] | 8.94 ± 0.16
TATCTGTATTTATATACACACATATTCTTTTTACAC [CACACA_site4798] | 8.75 ± 0.33
AAAATCACAAAACACACACACACAAAAAAAAAAAAA [CACACA_site1443] | 8.12 ± 0.6
CACATATAGTTATATGCACACATCTTACACATATAT [CACACA_site3692] | 8.74 ± 0.33
CATGGGCAAATATTCTCACACATAAACATAAACATA [CACACA_site4597] | 8.46 ± 0.61
AAAAAAGTAAAAAAAGCACACACGAAAAAAAATAAA [CACACA_site2233] | 8.93 ± 0.7
ATGGTGCAACATTATGCACACCGTTAAATAACTAAT [CACACA_site9280] | 8.99 ± 0.36
GTTTGAAGAACTATAAATGTATAAATAAAAGTTTAG [TGCATGCA_negctrl_site222] | 8.31 ± 0.42

Sequence | gcPBM binding intensity (ln)
ATATAGTAAAATTATACACACATGAATTTTCCCATG [CACACA_site1770] | 8.48 ± 0.49
GGGAATTATGAAAAAAGTACAGAACAAAAGTAAAAG [XGTACX_site2861] | 9.06 ± 0.47
ATTACATGATATATCACACACACATATAAATATATA [CACACA_site2830] | 8.73 ± 0.41
CATATATATATATATACACACACACCGTCCGTGTTA [CACACA_site8975] | 8.64 ± 0.35
TTTTTTTTTTTTTTTTGTACTCATAAAAATATATTA [XGTACX_site3458] | 8.31 ± 0.46
TACAAAAATGAAAAAAGTACATATCATTTAATATAA [XGTACX_site8066] | 8.46 ± 0.4
ATATGTATTTATATATGTTTGAATTTTTTTTTTTTT [CACACA_negctrl_site5] | 8.15 ± 0.35
GTTCGAAGTATAATTTGTACATATAAAATGGTTCCC [XGTACX_site382] | 8.48 ± 0.42
GAATAAATAAATAAATGTACATATATATTTATTTAT [XGTACX_site243] | 8.34 ± 0.36
ATTTGATCAACAAAACGTACACATATTTTCATGTGT [XGTACX_site447] | 8.44 ± 0.37
TAGTTTTCTTAAAGATGTACTTATTAAAAATAAACT [XGTACX_site1001] | 8.13 ± 0.17
TATAGATAAATTATTTGTACTTATAAAATTATTATA [XGTACX_site2870] | 8.11 ± 0.38
AATGATTGATTTTATTGTACGTACTCGGAATATGGT [XGTACX_site4976] | 8.74 ± 0.4
GAATTTTAAATAAACATATAAACAGAAAAAAAAAAA [TGCATGCA_negctrl_site149] | 8.55 ± 0.37
AACCTCATGGACATATGTACACATATACAATTATTT [XGTACX_site6533] | 8.77 ± 0.33
TTATCTTACATATATCATTAAATCATATAACAAAAA [XGTACX_negctrl_site517] | 8.24 ± 0.41
TTATGTATTTTAAATGGTTTTATTATAAAGTTTAAT [CACACA_negctrl_site1470] | 8.27 ± 0.37
CACAAATATACAAATACACACAAATATACGCATATA [CACACA_site2384] | 8.61 ± 0.48
GTTATATTTAAAATAGTGCAATAAAAATAATAATAT | 8.89 ± 0.2
CCTTTATAATTGGAAACACACATATAAAGTATATAT [CACACA_site3900] | 8.38 ± 0.43
ATATAATATATATACAAACACACAATTGTGTCCACA [CACACA_site1748] | 8.85 ± 0.33
AAAATACATGGACACACACACACACCGATATATATA [CACACA_site5885] | 8.87 ± 0.42

Sequence | gcPBM binding intensity (ln)
TACATAACTTTAATCACACACAAACAAACACATACA [CACACA_site6235] | 8.81 ± 0.61
AAATATACATATATATGTACATATAAATATATTTTA [XGTACX_site5266] | 8.38 ± 0.33
TCTTACAAGGAACTAATAAAATTGTAGTTTGTATTT [CACACA_negctrl_site386] | 8.16 ± 0.33
AAATCTTAATAAAGTTGTACATAATTATGTTTAATA [XGTACX_site3348] | 8.43 ± 0.33
AAGTATTTCCTAAAATGTACATATAAATAAGTATAT [XGTACX_site1282] | 8.44 ± 0.49
CATATATTTTGAAACACACACATATAAAATATACAT [CACACA_site6664] | 8.84 ± 0.37
TTATTATTTATTTTTTATTATTATTATTTTTTTTTA [XGTACX_negctrl_site76] | 8.36 ± 0.42
GAAAAGATTTAAAAATGTACAAAAGAAAAAAAAAAA [XGTACX_site6916] | 8.63 ± 0.51
TTAAAATTAAAATACGTACACACCTTATCTTTTTGG [CACACA_site7982] | 8.48 ± 0.3
AATATGCCTCCCCAAAAAAAATATATATATATTTAT [GTGCAC_negctrl_site716] | 9.78 ± 0.98
TGGTTATAATTGTACGCATGTAATTACATATTCTCT [TGCATGCA_site599] | 8.99 ± 0.25
TATATTTAAATATATACACACATTATCATTTTCATA [CACACA_site1708] | 8.28 ± 0.57
TATCATTTGGTCTTTTACTTTTTCTGTTTTTTTTTT [CACACA_negctrl_site976] | 8.87 ± 0.35
TTTTTTACTATATCAATTACAAAACAAAAAAAAAAA [GTGCAC_negctrl_site683] | 8.35 ± 0.42
TGATAAAATATTAAATTATTTCTTTATTTAAAGATT [CACACA_negctrl_site370] | 7.67 ± 0.37
AAATATGTTTCAAAAAGTACATTTCTATCTTTTTTT [XGTACX_site7178] | 8.51 ± 0.42
TACTATAAAATGGAATGTACACATAAATATATCTAA [XGTACX_site6137] | 8.51 ± 0.3
ATATGATGTAAAAGCACACATATATATATATATATA [CACACA_site4018] | 10.1 ± 0.44
GTTTATAACTATGTGTGTACACATTAATCGTTTTTC [XGTACX_site4364] | 8.93 ± 0.23
TTGTATAAATATGTATGTATATAATATATGTAAAGA [TGCATGCA_negctrl_site93] | 8.61 ± 0.49
CACATACACATACACATACACACGCATAGAAACATA [CACACA_site2136] | 8.94 ± 0.22
AAATCGTGTACATTGACACACATAATTTTTTTTATA [CACACA_site2463] | 8.43 ± 0.3
